Test [1] addresses T1, recombinant cynomolgus monkey sclerostin (cynomolgus monkey).
T1 construct: also called cyno sclerostin; Cyno sclerostin
The test can be described thus: SPR. The method, then: (§1) The binding of antibodies or anti-sclerostin-TNF DVD to purified recombinant human, cynomolgus monkey (cyno), rat and mouse sclerostin and TNFα was determined by surface plasmon resonance-based measurements with a Biacore T100 or T200 instruments (GE Healthcare Life Sciences, Piscataway, N.J., USA) using running HBS-EP+ (10 mM HEPES [pH 7.4], 150 mM NaCl, 3 mM EDTA, and 0.005% surfactant P20) containing additional 150 mM NaCl, and/or 10 mg/ml carboxymethyl dextran, 0.1 mg/ml BSA at 25° C. All chemicals were obtained from GE Healthcare Life Sciences, Piscataway, N.J., USA or otherwise from a different source as described in the text. Approximately 10,000 RU (or 3000 RU when CM3 chip was used) of goat anti-mouse or anti-human IgG (Fcγ) fragment specific polyclonal antibody (Pierce Biotechnology Inc, Rockford, Ill.) diluted in 10 mM sodium acetate (pH 4.5) was directly immobilized across a CM5 (or CM3) research grade biosensor chip using a standard amine coupling kit according to manufacturer's instructions and procedures at 15 μg/ml. Unreacted moieties on the biosensor surface were blocked with ethanolamine. Modified carboxymethyl dextran surface in flowcells 2, 3 and 4 were used as a reaction surface. Modified carboxymethyl dextran in flow cell 1 was used as the reference surface. Biaevaluation T100 software version 2.0.2, GE Healthcare Life Sciences was used to simultaneously fit association and dissociation phases of all injections (using 1:1 fit analysis with local Rmax). Purified antibodies were diluted in running buffer for capture across goat anti-mouse or anti-human IgG specific reaction surfaces. Antibodies to be captured as a ligand (1 μg/ml) were injected over reaction matrices at a flow rate of 10 μl/minute. The association and dissociation rate constants, kon (unit M-1 s-1) and koff (unit s-1) were determined under a continuous flow rate of 50 μl/minute. […] At the end of each cycle the surfaces were regenerated with 10 s injection of 50 mM NaOH or/and by 10 s injection of 10 mM Glycine pH1.5 at a flow rate of 100 μl/min.

For test [2], the target named is T2, recombinant human sclerostin (human, UniProt Q9BQB4 24-213).
T2 construct: biotinylated in the ELISAs; also called hu sclerostin; hu scl
T2 sequence: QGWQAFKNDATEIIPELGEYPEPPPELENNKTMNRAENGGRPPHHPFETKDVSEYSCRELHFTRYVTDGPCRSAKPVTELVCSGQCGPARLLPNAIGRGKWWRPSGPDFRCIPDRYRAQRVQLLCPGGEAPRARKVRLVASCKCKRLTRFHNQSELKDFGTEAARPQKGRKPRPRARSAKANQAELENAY
Briefly: SPR. The method, then:
as §1

A further test addresses Rhesus/cynoTNFa (Rhesus/cyno). Briefly: cell-based or functional assay.

B1: DVD2631 (bispecific antibody, human IgG1, lambda)
heavy: EVQLVESGGGLVQPGGSLRLSCAASGFTFSNYGVTWVRQAPGKGLEWVSMIWADGSTHYASSVKGRFTISRDNSKNTLYLQMNSLRAEDTAVYYCAREWQHGPVAYWGQGTLVTVSSASTKGPSVFPLAPEVQLVESGGGLVQPGRSLRLSCAASGFTFDDYALHWVRQAPGKGLEWVSGIGWDEDMIDYADSVKGRFTISRDNAKNSLYLQMNSLRVEDTALYYCAGNNRGYGGLDVWGQGTTVTVSSASTKGPSVFPLAPSSKSTSGGTAALGCLVKDYFPEPVTVSWNSGALTSGVHTFPAVLQSSGLYSLSSVVTVPSSSLGTQTYICNVNHKPSNTKVDKKV[left out - human IgG1 Fc with changes]
light: DIQMTQSPSSLSASVGDRVTITCRASQLVSSAVAWYQQKPGKAPKLLIYWASARHTGVPSRFSGSGSGTDFTLTISSLQPEDFATYYCQQHYKTPFTFGQGTKLEIKRTVAAPQSVLTQPPSASGTPGQRVTISCSGSWSNIGSNTVNWYQQLPGTAPKLLIYNNNQRPSGVPDRFSGSKSGTSASLAISGLQSEDEADYYCAAWDDSLSGEYVFGGGTKLTVLGQPKAAPSVTLFPPSSEELQANKATLVCLISDFYPGAVTVAWKADSSPVKAGVETTTPSKQSNNKYAASSYLSLTPEQWKSHRSYSCQVTHEGSTVEKTVAPTECS
notes: DVD-Ig: outer AB436, inner MSL10-AM3.2
B1: in test [1], the dissociation constant (Kd) was 2.3 nM, the koff is 0.00024 s⁻¹ and the kon was 110000 M⁻¹ s⁻¹. Further, in test [2], the dissociation constant (Kd) stood at 1.8 nM, the koff came to 0.00014 s⁻¹ and the association rate constant (kon) came to 79000 M⁻¹ s⁻¹.

B2: DVD2630 (bispecific antibody, human IgG1, kappa, lambda)
heavy: EVQLVESGGGLVQPGGSLRLSCAASGFTFSNYGVTWVRQAPGKGLEWVSMIWADGSTHYASSVKGRFTISRDNSKNTLYLQMNSLRAEDTAVYYCAREWQHGPVAYWGQGTLVTVSSASTKGPEVQLVESGGGLVQPGRSLRLSCAASGFTFDDYALHWVRQAPGKGLEWVSGIGWDEDMIDYADSVKGRFTISRDNAKNSLYLQMNSLRVEDTALYYCAGNNRGYGGLDVWGQGTTVTVSSASTKGPSVFPLAPSSKSTSGGTAALGCLVKDYFPEPVTVSWNSGALTSGVHTFPAVLQSSGLYSLSSVVTVPSSSLGTQTYICNVNHKPSNTKVDKKV[left out - human IgG1 Fc with changes]
light: DIQMTQSPSSLSASVGDRVTITCRASQLVSSAVAWYQQKPGKAPKLLIYWASARHTGVPSRFSGSGSGTDFTLTISSLQPEDFATYYCQQHYKTPFTFGQGTKLEIKRTVAAPSVFIFPPQSVLTQPPSASGTPGQRVTISCSGSWSNIGSNTVNWYQQLPGTAPKLLIYNNNQRPSGVPDRFSGSKSGTSASLAISGLQSEDEADYYCAAWDDSLSGEYVFGGGTKLTVLGQPKAAPSVTLFPPSSEELQANKATLVCLISDFYPGAVTVAWKADSSPVKAGVETTTPSKQSNNKYAASSYLSLTPEQWKSHRSYSCQVTHEGSTVEKTVAPTECS
notes: as for B1
Regarding B2, the “L929 TNF neutralization IC50” value with Rhesus/cynoTNFa was determined as 0.006 nM. Also, in test [1], the equilibrium dissociation constant (Kd) is 0.25 nM, the koff came to 1.2e-05 s⁻¹ and the on-rate (kon) was 46000 M⁻¹ s⁻¹. Further, in test [2], the Kd is 1.3 nM, the koff worked out at 4.8e-05 s⁻¹ and the on-rate (kon) is 37000 M⁻¹ s⁻¹.

B3: DVD2623 (bispecific antibody, human IgG1, lambda)
heavy: EVQLVESGGGLVQPGGSLRLSCAASGFTFSNYGVTWVRQAPGKGLEWVSMIWADGSTHYASSVKGRFTISRDNSKNTLYLQMNSLRAEDTAVYYCAREWQHGPVAYWGQGTLVTVSSASTKGPEVQLVESGGGLVQPGRSLRLSCAASGFTFDDYALHWVRQAPGKGLEWVSGIGWEDDMIDYADSVKGRFTISRDNAKNSLYLQMNSLRVEDTALYYCAGNSRGYGGLDVWGQGTTVTVSSASTKGPSVFPLAPSSKSTSGGTAALGCLVKDYFPEPVTVSWNSGALTSGVHTFPAVLQSSGLYSLSSVVTVPSSSLGTQTYICNVNHKPSNTKVDKKV[left out - human IgG1 Fc with changes]
light: DIQMTQSPSSLSASVGDRVTITCRASQLVSSAVAWYQQKPGKAPKLLIYWASARHTGVPSRFSGSGSGTDFTLTISSLQPEDFATYYCQQHYKTPFTFGQGTKLEIKRTVAAPQSVLTQPPSASGTPGQRVTISCSGSSSNIGGNTVNWYQQLPGTAPKLLIYSNNQRPSGVPDRFSGSKSGTSASLAISGLQSEDEADYYCAAWDDSLEGSYVFGGGTKLTVLGQPKAAPSVTLFPPSSEELQANKATLVCLISDFYPGAVTVAWKADSSPVKAGVETTTPSKQSNNKYAASSYLSLTPEQWKSHRSYSCQVTHEGSTVEKTVAPTECS
notes: DVD-Ig: outer AB436, inner MSL10-AM2.2
Consider B3, for which, in the test with Rhesus/cynoTNFa, the “L929 TNF neutralization IC50” value is 0.0285 nM. Further, in test [1], the equilibrium dissociation constant (Kd) was under 0.01 nM, the koff was under 1e-06 s⁻¹ and the kon was 99000 M⁻¹ s⁻¹. In test [2], the Kd is under 0.013 nM, the dissociation rate constant (koff) was under 1e-06 s⁻¹ and the on-rate constant (kon) worked out at 75000 M⁻¹ s⁻¹.

B4: DVD2627 (bispecific antibody, human IgG1, lambda)
heavy: EVQLVESGGGLVQPGGSLRLSCAASGFTFSNYGVTWVRQAPGKGLEWVSMIWADGSTHYASSVKGRFTISRDNSKNTLYLQMNSLRAEDTAVYYCAREWQHGPVAYWGQGTLVTVSSGGGGSGGGGSEVQLVESGGGLVQPGRSLRLSCAASGFTFDDYALHWVRQAPGKGLEWVSGIGWDEDMIDYADSVKGRFTISRDNAKNSLYLQMNSLRVEDTALYYCAGNNRGYGGLDVWGQGTTVTVSSASTKGPSVFPLAPSSKSTSGGTAALGCLVKDYFPEPVTVSWNSGALTSGVHTFPAVLQSSGLYSLSSVVTVPSSSLGTQTYICNVNHKPSNTKVDKKV[left out - human IgG1 Fc with changes]
light: DIQMTQSPSSLSASVGDRVTITCRASQLVSSAVAWYQQKPGKAPKLLIYWASARHTGVPSRFSGSGSGTDFTLTISSLQPEDFATYYCQQHYKTPFTFGQGTKLEIKRGGSGGGGSGQSVLTQPPSASGTPGQRVTISCSGSWSNIGSNTVNWYQQLPGTAPKLLIYNNNQRPSGVPDRFSGSKSGTSASLAISGLQSEDEADYYCAAWDDSLSGEYVFGGGTKLTVLGQPKAAPSVTLFPPSSEELQANKATLVCLISDFYPGAVTVAWKADSSPVKAGVETTTPSKQSNNKYAASSYLSLTPEQWKSHRSYSCQVTHEGSTVEKTVAPTECS
notes: as for B1
For B4, in the test with Rhesus/cynoTNFa, the “L929 TNF neutralization IC50” value came out at 0.009 nM. Moreover, in test [1], the dissociation constant Kd turned out to be 2.6 nM, the koff stood at 0.00014 s⁻¹ and the on-rate constant (kon) turned out to be 54000 M⁻¹ s⁻¹. In test [2], the dissociation constant Kd was 0.96 nM, the koff is 4.3e-05 s⁻¹ and the kon was determined as 45000 M⁻¹ s⁻¹.

For the origin of these results see US20150266977A1 (AbbVie / Abbott, published 2015).
